Experimental data reported in article PMC4707540.
These are yes or no findings as the source states them, for the method shown. Binding seen in cells or lysates may run through a third protein. Some binding calls cover weakened binding; strength is not graded here. One block for each substance: values may come before it.

The chains behind the UniProt entries cited, without tags or fusion partners.
UniProt P00441: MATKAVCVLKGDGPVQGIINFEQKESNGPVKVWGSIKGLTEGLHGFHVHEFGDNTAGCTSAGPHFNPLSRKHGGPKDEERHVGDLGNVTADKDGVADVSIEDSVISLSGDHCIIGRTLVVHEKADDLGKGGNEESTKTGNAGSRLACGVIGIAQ
UniProt Q13617: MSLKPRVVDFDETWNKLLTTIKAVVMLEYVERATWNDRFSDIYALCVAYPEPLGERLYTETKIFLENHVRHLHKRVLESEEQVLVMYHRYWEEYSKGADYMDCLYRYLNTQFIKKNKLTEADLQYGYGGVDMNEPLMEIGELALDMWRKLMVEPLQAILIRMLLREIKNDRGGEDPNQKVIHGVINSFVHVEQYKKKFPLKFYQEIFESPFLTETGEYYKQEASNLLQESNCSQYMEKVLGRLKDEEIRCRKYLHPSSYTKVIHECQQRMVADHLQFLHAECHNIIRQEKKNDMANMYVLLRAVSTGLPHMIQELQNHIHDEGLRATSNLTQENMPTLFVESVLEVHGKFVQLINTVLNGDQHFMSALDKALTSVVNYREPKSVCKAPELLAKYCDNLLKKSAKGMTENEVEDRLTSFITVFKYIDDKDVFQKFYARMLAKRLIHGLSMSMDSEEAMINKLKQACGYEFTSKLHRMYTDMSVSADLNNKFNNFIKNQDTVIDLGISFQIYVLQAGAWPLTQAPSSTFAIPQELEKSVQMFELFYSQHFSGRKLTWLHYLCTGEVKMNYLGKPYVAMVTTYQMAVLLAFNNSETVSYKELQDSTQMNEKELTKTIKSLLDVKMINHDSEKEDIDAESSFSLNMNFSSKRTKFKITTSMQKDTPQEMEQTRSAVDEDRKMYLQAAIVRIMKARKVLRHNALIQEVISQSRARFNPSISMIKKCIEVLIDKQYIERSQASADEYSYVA
UniProt P40337: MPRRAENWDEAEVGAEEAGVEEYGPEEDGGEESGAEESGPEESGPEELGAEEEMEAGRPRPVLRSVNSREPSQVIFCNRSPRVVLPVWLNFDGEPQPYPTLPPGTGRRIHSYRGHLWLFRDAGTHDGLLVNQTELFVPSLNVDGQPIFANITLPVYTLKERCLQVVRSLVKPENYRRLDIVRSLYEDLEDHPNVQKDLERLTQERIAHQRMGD

Columns and labels:
[1] = molecular target: TDP-43-FLAG ΔNES2 (human) (UniProt Q13148); experiment: co-IP; lysates of HEK293A cells co-transfected with a FLAG-tagged protein (TDP-43 or SOD1 forms) and HA-VHL, 48 h after transfection; anti-FLAG M2 affinity gel at 4 °C overnight, blotted with anti-HA; co-IP buffer (20 mM HEPES pH 7.4, 125 mM NaCl, 2 mM EDTA, 1% Triton X-100, 10% glycerol); in some panels cells treated with lactacystin (10 μM, 8 h) and/or paraquat (0.4 mM, 8 h)
[2] = molecular target: TDP-43-FLAG ΔNES (human) (UniProt Q13148); experiment: as above
[3] = molecular target: TDP-43-FLAG D247N (human) (UniProt Q13148); experiment: as above
[4] = molecular target: WT SOD1-FLAG (UniProt P00441); experiment: as above
[5] = molecular target: WT TDP-43-FLAG (human) (UniProt Q13148); experiment: as above
[6] = molecular target: TDP-43-FLAG ΔNES1 (human) (UniProt Q13148); experiment: as above
[7] = molecular target: TDP-43-FLAG E246Q/D247N (QN) (human) (UniProt Q13148); experiment: as above
[8] = molecular target: TDP-43-FLAG C175S (human) (UniProt Q13148); experiment: as above
[9] = molecular target: FLAG-CUL2 (UniProt Q13617); experiment: co-IP; lysates of HeLa cells co-transfected with TDP-43-GFP (WT or mNLS) and FLAG-CUL2; immunoprecipitated with anti-FLAG or anti-GFP affinity beads, blotted with anti-GFP or anti-FLAG
[10] = molecular target: human VHL tagged with HA (HA-VHL) (human) (UniProt P40337); experiment: co-IP; lysates of HEK293A cells transfected with HA-VHL, immunoprecipitated with anti-HA affinity beads, blotted for endogenous proteins; with or without lactacystin

binding [1]: binds
binding [2]: binds
binding [3]: binds
binding [4]: no binding
binding [5]: binds
binding [6]: binds
binding [7]: no binding
binding [8]: binds
Substance: human VHL tagged with HA (HA-VHL) (from UniProt P40337 1-213)

binding [9]: binds
Substance: wild type (WT) TDP-43-GFP (from UniProt Q13148 1-414)

Substance: endogenous TDP-43 (from UniProt Q13148 1-414)
binding [10]: binds
